The values below come from patent US6987112B2, “Organic compound having cyano group and insecticides/miticides” (Nippon Soda Co., Ltd., priority 2000, dated 2006).

The test system of this test is two-spotted spider mite having acquired resistance to organophosphorous insecticides. The test can be described thus: Effects on two-spotted spider mite (spray on adult females on French bean leaves). Particulars: Tetranychus urticae, in Phaseolus vulgaris, read-out: percentage mortality.
Consider `Cn1nc(C(F)(F)F)c(C(O)=C(C#N)Oc2ccc(Cl)cc2)c1Cl` [Compound No. 3-8, β-(5-chloro-1-methyl-3-trifluoromethylpyrazole-4-yl)-α-(4-chlorophenoxy)-β-hydroxyacrylonitrile], for which the mortality at 125 ppm stood at 100%.
`Cn1nc(C(F)(F)F)c(C(OC(=O)C(C)(C)C)=C(C#N)Oc2ccc(Cl)cc2)c1Cl` [Compound No. 3-9, β-(5-chloro-1-methyl-3-trifluoromethylpyrazole-4-yl)-α-(4-chlorophenoxy)-β-pivaloyloxyacrylonitrile]: the mortality at 125 ppm is 100%.
Turning to `Cc1cc(Cl)ccc1N=CN(C)C` [chlordimeform, reference compound], the mortality at 125 ppm is 13%.

The mortality is the share of the test organisms that died.
